Measured values published in the RNAGym collection of RNA variant scans (doi:10.7554/elife.90254).
Read counts are not given, so values of variants with three or more changes are uncertain.

B1: OR4K15 (parent)
chain: GUUAACGGUCAUAGGCCAUGGAAACUAGGAGCACCAUUUCGCUGCCAGUGAAGAAAUGAACAAAGAAAAUCUGGGCCAGGCAGGCAUCAAAAGAAAUAGUCUUGCGCUCAACCAGAAAGUCUGUAAUCAUUUUAAGGGUA

Variants of: B1
Test: self-cleavage, relative activity (ratio to wild type); higher = more cleavage; in vitro, sequencing; the parent is a self-cleaving ribozyme

Q: With GAUAGCGGUCAUAGGCCAUGGAAACUAGGAGCACCAUUUCGCUGCCGGUGAAGAAAUGAACAAAGAAAAUCUGGGCCAGGCAGGCAUCAAAAGAAAUAGUCUUGCGCUCAACCAGAAAGUCUGUAAUCAUCUUAAGGGUA [U2A A5G A47G U131C] as the variant, how does the self-cleavage read?
A: 1.63

Q: With AUUAACGGUCAUAGGUCAUGGAAACUAGGAGCACCAUUUCGCUGCCAGUGAAGAAAUGAACAAAGAAAAUCUGGGCCAGGCAGGCAUCAAGAGAAAUAGUCUUGCGCUCAACCAGAAAGUCUGUAAUCAUUUUAAGGGUA [G1A C16U A91G] as the variant, how does the self-cleavage read?
A: 1.33

Q: Which self-cleavage does the source give for AUUAACGGUCAUAGGCCAUGGAAACUAGGAGCGCCAUUCCGCUGCCAGUGAAGAAAUGAACAAAGAAAAUCUGGGCCAGGCAGGCAUCAAAAGAAAUAGUCUUACGCUCAACCAGAAAGUCUGUAAUCAUUUUAAGGGUA [G1A A33G U39C G104A] here?
A: 0.06

Q: With UUUAGCGGUCAUAGGCCAUGGUAACUAGGAGCACCAUUUCGCUGCCAGUGAAGAAAUGAACGAAGAAAAUCUGGGCCAGGCAGGCAUCAAAAGAAAUAGUCUUGCGCUCAACCAGAAAGUCUGUAAUCAUUUUAAGGGUA [G1U A5G A22U A62G] as the variant, how does the self-cleavage read?
A: 0.71

Q: For GAUAACGGUCAUAGGCCAUGGGAACUAGGAGCACCAUUUCGCUGCCAGUGAAGAAAUGAACAAAGCAAAUCUGGGCCAGGCAGGCAUCAAAAGAAAUAGUCUUGCGCUCAACCAGAAAGUCUGUAAUCAUUUUAAGGGUA [U2A A22G A66C], which self-cleavage is on record?
A: 0.87

Q: With AUUAACGGCCAUAGGCCACGGAAACUAGGAGCACCAUUUCGCUGCCAGUGAAGGAAUGAACAAAGAAAGUCUGGGCCAGGCAGGCAUCAAAAGAAAUAGUCUUGCGCUCAACCAGAAAGUCUGUAAUCAUUUUAAGGGUA [G1A U9C U19C A54G A69G] as the variant, how does the self-cleavage read?
A: 1.29

Q: With UUUAACGGUCAUAGGCCAUGGAGCCUAGGAGCACCAUUUCGCUGCCAAUGAAGAAGUGAACAAAGAAAAUCUGGGCCAGGCAGGCAUCAAAAGAAAUAGUCUUGCGCUCAACCAGAAAGUCUGUAAUCACUUUAAGGGUA [G1U A23G A24C G48A A56G U130C] as the variant, how does the self-cleavage read?
A: 0.46

Q: For UUUAACGGUCAUAUGCCAUGGAAACUAGGAGCACCAUUUCGCUGCCAGUGAAGAAAUGAACAAAGAAAAUCUGGGCCAGGCUGGCACCAAGAGAAAUAGUCUUGCGCUCAACCAGAAAGUCUGUAAUCAUUUUAAGGGUA [G1U G14U A82U U87C A91G], which self-cleavage is on record?
A: 0.11

Q: With GAUAACGGUCAUGGGCCAUGGAAGCUAGGAGCACCAUUUCGCUGCCAGUGAAGAAAUGUACAAAGAAAAUCUGGGCCAGGCAGGCACCAAAAGAAAUAGUCUUGCGCUCAACCAGAAAGUCUGUAAUCAUUUUAAGGGUA [U2A A13G A24G A59U U87C] as the variant, how does the self-cleavage read?
A: 0.57

Q: Which self-cleavage does the source give for GAUAACGGUCAUAGGCCAUGGAGACUAGGAGCACCAUUUCGCUGCCAGUGGAGAAAUGAACAAAGAAAAUCUGGGCCAGGCAGGCAUCAAAAGAAAUAGUCUUGCGCUCAACCAGGAAGUCUGUAAUCAUUUUAAGGGUA [U2A A23G A51G A116G] here?
A: 0.34

Q: With GAUAACGGUCGUAGGCCAUGGAAACUAGGAGCACCAUUUCGCUGCCAGUGAAGGAAUGAACAAAGAAAAUCUGGGCCAGGCAGGCAUCAAAAGAAAUAGUCUUGCGCUCAACCGGAAAGUCUGUAAUCAUUUUAAGGGUA [U2A A11G A54G A114G] as the variant, how does the self-cleavage read?
A: 0.74

Q: Which self-cleavage does the source give for UUUGACGGUCAUAGGCCGUGGAAACUAGGAGCACCAUUUCGCCGCCAGUGAAGAAAUGAUCAAAGAAAAUCUGGGCCAGGCAGGCAUCAAAAGAAAUUGUCUUGCGCUCAACCAGAAAGUCUGUAAUCAUUUUAAGGGUA [G1U A4G A18G U43C A60U A98U] here?
A: 1.2

Q: With GAUAACGGUCAUGGGCCAUGGAAGCUAGGAGCACCAUUUCGCUGCCAGUGAAGAAAUGAACAAAGAAAAUCUGGGCCAGGCAGGCAUCAAAAGAAAUAGUCUUGCGCUCAACCAGAAAGUCUGUAAUCAUUUUAAGGGUA [U2A A13G A24G] as the variant, how does the self-cleavage read?
A: 0.99

Q: With GAUAGCGGUCAUAGGCCAUGGAAACUAGGAGCGCCAUUUCGCUGCCAGUGAAGGAAUGAACGAAGAAAAUCUGGGCCAGGCAGGCAUCAAAAGAAAUAGUCUUGCGCUCAACCAGAAAGUCUGUAAUCAUUUUAAGGGUA [U2A A5G A33G A54G A62G] as the variant, how does the self-cleavage read?
A: 0.21

Q: Which self-cleavage does the source give for AUUAACGGUCAUAGGCCAUGGAAACUAGGAGCACCAUUUCGCUGCCAGUGAAGAAACGAACAAAGAAAAUCUGGGCCAGGCAGGCUUCAAAAGAAAUAGUCUUGUGCUCAACCAGAAAGUCUGUAAACAUUUUAAGGGUA [G1A U57C A86U C105U U127A] here?
A: 0.28

Q: With GAUAUCGGUCAUAGGCCACGGAAACUAGGAGCACCAUUUCGCUGCCAGUGAAGAAAUGAACAAAGAAAAUCUGGGCCAGGCAGGCAUCAAAAGAAAUAGCCUUGCGCUCAACCAGAAAGUCUGUAAUCAUUUUAAGGGUA [U2A A5U U19C U100C] as the variant, how does the self-cleavage read?
A: 1.86

Q: Which self-cleavage does the source give for AUUAACGGUCAUUGGCCAUGGAAACUAGGAGCACCAUUUCGCUGCCAGUGAAGAAAUGUACCAAGAAAAUCUGGGCCAGGCAGGCCUCAAAAGAAAUAGUCUUGCGCUCAACCAGAAAGUCUGUAAUCAUUUUAAGGGUA [G1A A13U A59U A62C A86C] here?
A: 0.82

Q: Which self-cleavage does the source give for GAUAACGGUCUUAGGCCAUGGAAACUAGGAGCACCAUUUCGCUGCCAGUGAAGAAAUGAACAAAGAAAAUCUGGGCCAGGCAGGCAUCAAAAGAAAUAGUCAUGCGCUCAACCAGAAAGUCUGUAAUCAUUUUAAGGGUA [U2A A11U U102A] here?
A: 0.35

Q: For GAUAGCGGUCACAGGCCAUGGAAACUAGGAGCACCAUUUCGCUGCCAGCGAAGAGAUGAACAAAGAAAAUCUGGGCCAGGCAGGCAUCAAAAGAAAUAGUCUUGCGCUCAACCAGAAAGCCUGUAAUCAUUUUAAGGGUA [U2A A5G U12C U49C A55G U120C], which self-cleavage is on record?
A: 0.32

Q: With AUUAACGGCCAUAGGCCAUGGAAACUAGGAGCACUAUUUCGCUGCCAGUGAAGAAAUGAACAAAGAAAAUCUGGGCCAGGCAGGCAUCAAAAGAAAUAGUCUUGCGCUCAACCAGAAAGUCUGUAAUCAUUUUAAGGGUA [G1A U9C C35U] as the variant, how does the self-cleavage read?
A: 0.25
